Assay results published in patent US4113858A, “Novel compounds, compositions and methods of their use” (St. Luke's Hospital, priority 1976, dated 1978).
Ends that are not written are not given here.

B1: Basic Protein: native protein isolated from bovine myelin known to induce disease (EAE) (protein, UniProt P02687 1-169, looked up)
Myelin basic protein: AAQKRPSQRSKYLASASTMDHARHGFLPRHRDTGILDSLGRFFGSDRGAPKRGSGKDGHHAARTTHYGSLPQKAQGHRPQDENPVVHFFKNIVTPRTPPPSQGKGRGLSLSRFSWGAEGQKPGFGYGGRASDYKSAHKGLKGHDAQGTLSKIFKLGGRDSRSGSPMARR

Columns and labels:
[1] = tested on: guinea pigs, rabbits and rats; details: 10-15 microgram doses
[2] = tested on: guinea pigs, rabbits and rats; details: s.c. at dosage levels of 10 μg or more; cited from earlier work

| Molecule | death post onset of signs [1] [days] | time to induction of the disease [1] | induction of disease (EAE), share of mammals [2] |
| --- | --- | --- | --- |
| FSWGAEGQK [Formula (X), H -- Phe -- Ser -- Trp -- Gly -- Ala -- Glu -- Gly -- Gln -- Lys -- OH, reference compound] | 2 to 3 | less than 20 days | – |
| B1 | – | – | at least 50% |
